Reference: the supplement of paper PMC4723716
± gives the uncertainty stated by the source. Whole data set: some 9,900 compounds, median “viability index relative to DMSO control” near 1, cut for the lowest 2% near 0.85. The list shows a part of the results.

Test system: Plasmodium falciparum NF54 stage V gametocytes
Experiment: viability index relative to DMSO control (fraction); higher = less gametocyte killing
Conditions: 2.5 µM, incubation time: 72 h
Method in brief: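 P. falciparum NF54 stage V gametocytes in serum-free screening medium (0.75% gametocytemia, 1.25% hematocrit, 10 µl) were incubated with compound at 2.5 µM in 1,536-well plates for 72 hr at 37°C under low oxygen. Then 3 µl of 2.5 µM MitoTracker Red CMXRos plus 0.13% saponin was added for one to two hours. One field per well was imaged, 20–70 µm2 red particles were counted, and the viability index was the count divided by the plate mean of DMSO wells.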

[1] = library set: Broad Institute DOS

Compound	viability index [1]	viability index (library set: Broad Institute Blood Stage)
O=C(C[C@@H]1C[C@H]2c3cc(NC(=O)C4CCOCC4)ccc3O[C@H]2[C@H](CO)O1)NCCN1CCCCC1	0.998 ± 0.084	–
O=C(c1cccc(F)c1)N1CC2(C1)[C@H](c1ccccc1)[C@@H](CO)N2Cc1ccccn1	1.13 ± 0.11	–
O=C1CNC[C@@H]2[C@H](c3ccc(-c4ccccc4F)cc3)[C@@H](CO)N12	0.998 ± 0.032	–
C/C=C/c1ccc([C@@H]2[C@@H](CO)N3C(=O)CN(Cc4ccc(F)cc4)C[C@H]23)cc1	1.07 ± 0.074	–
CN1CCCCN2[C@H](CO)[C@H](c3ccc(-c4ccc(F)cc4)cc3)[C@@H]2C1	1.08 ± 0.021	–
O=C(CC(F)(F)F)N1C[C@@H]2[C@H](c3ccccc31)[C@H](CO)N2CC1CCOCC1	0.999 ± 0.076	–
Cc1noc(C)c1S(=O)(=O)Nc1ccc2c(c1)C(=O)N([C@H](C)CO)C[C@@H](C)[C@@H](CN(C)C(=O)Nc1cccc3ccccc13)OCCCC[C@@H](C)O2	0.968 ± 0.077	–
O=C([C@H]1[C@H](CO)[C@H]2Cn3c(cccc3=O)[C@H]2N1C(=O)C1CCCCC1)N1CCOCC1	1.09 ± 0.026	–
COc1ccc2c3c([C@@H](CO)N(C)C[C@]33CN(C3)C(=O)C3CCC3)n(C)c2c1	1.07 ± 0.034	–
COCC(=O)Nc1ccc2c(c1)C(=O)N(C)[C@@H]1CC[C@H](CC(=O)N3CCc4ccccc4C3)O[C@@H]1CO2	1.0023 ± 0.00098	–
CO[C@H]1CC[C@H]2CCN(C)C(=O)[C@@H](C)N(C)C(=O)c3cccc(C#N)c3OC[C@@H]1O2	1 ± 0.07	–
CN1C(=O)c2cc(NC(=O)c3ccc4c(c3)OCO4)ccc2OC[C@@H]2O[C@H](CC(=O)O)CC[C@@H]21	1.17 ± 0.094	–
C[C@H](CO)N1C[C@H](C)[C@@H](CN(C)C(=O)Nc2ccc3c(c2)OCO3)Oc2ccc(NC(=O)Nc3ccc(C(F)(F)F)cc3)cc2CC1=O	–	0.755 ± 0.061
C[C@@H]1CN([C@@H](C)CO)C(=O)CCCn2nncc2CO[C@@H]1CN(C)C(=O)Nc1ccc2c(c1)OCCO2	1.13 ± 0.017	–
Cc1noc(C)c1NC(=O)N(C)C[C@H]1OCc2ccccc2-c2c(n(C)c3ccccc23)C(=O)N([C@H](C)CO)C[C@@H]1C	1.04 ± 0.016	–
O=C(C[C@@H]1C[C@@H]2c3cc(NC(=O)C4CCC4)ccc3O[C@@H]2[C@H](CO)O1)NC1CCCC1	1.03 ± 0.051	–
N#Cc1cccc(-c2ccc([C@H]3[C@@H]4CN(C(=O)Nc5ccc(C(F)(F)F)cc5)C[C@H]3N4)cc2)c1	0.985 ± 0.12	–
CC(C)NC(=O)Nc1ccc2c(c1)C(=O)N([C@@H](C)CO)C[C@@H](C)[C@@H](CN(C)C(=O)C1CCCCC1)OCCCC[C@H](C)O2	1.1 ± 0.11	–

Compound	viability index [1]	viability index (library set: Broad Institute Blood Stage)
CC(C)NC(=O)N(C)C[C@@H]1Oc2ccc(NC(=O)Cc3ccccc3)cc2CC(=O)N([C@H](C)CO)C[C@@H]1C	0.981 ± 0.031	–
COc1ccccc1-c1ccc([C@H]2[C@H]3CN(C(=O)c4cccnc4)CCCCN3[C@H]2CO)cc1	1.02 ± 0.058	–
C[C@@H]1CN([C@@H](C)CO)C(=O)c2cc(C#Cc3ccccc3)cnc2O[C@@H]1CN(C)C(=O)c1ccccc1	1.08 ± 0.028	–
COc1ccccc1NC(=O)N[C@@H]1CC[C@H](CCNS(=O)(=O)c2ccc(Cl)cc2)O[C@H]1CO	1.05 ± 0.063	–
Cc1ccccc1-c1cnc2c(c1)C(=O)N([C@@H](C)CO)C[C@H](C)[C@@H](CN(C)Cc1ccccc1F)O2	1 ± 0.013	–
CN1[C@H](C(=O)NCc2ccccn2)[C@@H](CO)[C@@H]2Cn3c(ccc(-c4ccc(F)cc4)c3=O)[C@@H]21	1.01 ± 0.043	–
COCC(=O)N1CC[C@H]2[C@H](CO)Nc3ccc(-c4ccc(C(=O)N(C)C)cc4)cc3[C@H]21	1.09 ± 0.071	–
COC(=O)C[C@H]1C[C@@H]2c3cc(N)ccc3O[C@@H]2[C@H](CO)O1	1.1 ± 0.031	–
O=C(C[C@H]1CC[C@@H]2[C@H](COC[C@@H](O)CN2C(=O)Nc2ccccc2)O1)NCc1ccccc1F	1.03 ± 0.084	–
N#C[C@@H]1[C@@H](c2ccccc2C2=CCCCC2)[C@H](CO)N1S(=O)(=O)c1ccccc1	1.05 ± 0.1	–
Cc1noc(C)c1NC(=O)N(C)C[C@@H]1OCc2cnnn2CCCC(=O)N([C@H](C)CO)C[C@@H]1C	1.09 ± 0.08	–
N#Cc1cccc(-c2ccc([C@@H]3[C@H]4CNC[C@@H]3N4C(=O)Nc3cccc(F)c3)cc2)c1	0.986 ± 0.035	–
COc1ccc2c3c([C@@H](CO)NC[C@]33CCN(CC3)C(=O)Nc3ccc4OCOc4c3)n(C)c2c1	1.01 ± 0.0042	–
O=C(C[C@@H]1C[C@H]2c3cc(NC(=O)C4CCC4)ccc3O[C@H]2[C@H](CO)O1)NC1CCCC1	1.08 ± 0.03	–
CC(=O)NC[C@H]1[C@@H](c2ccc(C#Cc3ccccc3F)cc2)[C@@H](CO)N1C(C)=O	1.05 ± 0.002	–
Cc1noc(C)c1S(=O)(=O)N(C)C[C@H]1OCCCC[C@@H](C)Oc2ccc(NS(=O)(=O)c3cn(C)cn3)cc2C(=O)N([C@@H](C)CO)C[C@@H]1C	1.1498 ± 0.0011	–
C[C@H]1CN([C@@H](C)CO)C(=O)c2cccc(NC(=O)c3cnccn3)c2O[C@@H]1CN(C)C(=O)NC1CCCCC1	0.973 ± 0.096	–
